Laboratory results: the RNAGym collection of RNA variant scans (doi:10.1093/nar/gkz1192)
The source gives no read counts; variants with many changes may rest on few reads.

B1: CPEB3 Ribozyme (parent)
chain: UAACAGGGGGCCACAGCAGAAGCGUUCACGUCGCAGCCCCUGUCAGAUUCUGGUGAAUCUGCGAAUUCUGCUGUAUAUCUC

Variants of: B1
Assay: self-cleavage, relative activity (ratio to wild type); higher = more cleavage; in vitro, sequencing
Outline: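 Relative activity compares each variant's cleaved/total read fraction with that of the unmutated ribozyme. To get these fractions, barcoded CPEB3 ribozyme libraries from rounds of error-prone PCR were transcribed with T7 RNA polymerase for 5 hours at 37°C and then given 15 min of DNase I treatment before EDTA was added. The RNAs were reverse transcribed with template switching and sequenced on Illumina, and DNA sequencing linked barcodes to variants. A minimum of 5 reads applied, and three batches were averaged.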

| Variant | self-cleavage |
| --- | --- |
| A3G A15G U25C C39G U80A | 0.06 |
| A3G A15G C79A | 0.99 |
| A3G A18U A21G U54C A64U | 0.08 |
| A3G A28U G63C U72A | 0.55 |
| A3G A21U U66C A77G | 0.1 |
| A3G A35G U54G | 1.28 |
| A3G A21G A28G U49C U51C U54C | 0.64 |
| A3G A45U G63A | 0.19 |
| A3G A21G U51C U54C U60A | 0.37 |
| A3G A15G U67A U74C | 0.37 |
| A3G A28C C40A U48C U51A | 0.09 |
| A3G A20G U41A U54C U60A U69C U72C | 0 |
| A3G A45U U49C | 0.1 |
| A3G A21G C34U U49C A64G | 0.08 |
| A3G A45G U60C G70C | 0.2 |
| A3G A20G U78C | 0.76 |
| A3G C12U A13U A35G U60C U69C | 0.37 |
| A3G A18U U41A | 0.12 |
| A3G A18G U31A A65G U67A U69C | 0.3 |
| A3G A18G G19C | 0.48 |
| A3G A18G U43A | 0.63 |
| A3G A35U U41C U43C U49C | 0.29 |
| A3G C12A A18U U54C A57G U58A U80C | 0.14 |
| A3G A15U A47G A75G | 0.48 |

| Variant | self-cleavage |
| --- | --- |
| A3G C11G U25C | 0.39 |
| A3G A47G A65G U66C | 0.28 |
| A3G A18G A21U U67A | 0.37 |
| A3G A20G A45G U54G | 0.51 |
| A3G A15G G61A | 0.51 |
| A3G A35G A47G U78C | 1.18 |
| A3G C12A U25C U49C U54C A57U | 0.06 |
| A3G A18G U31C U78C | 0.37 |
| A3G A15U A20G U25A U58C G73A | 0.43 |
| A3G A13U G19A A47U U49C | 0.38 |
| A3G A18U C39A A75C | 0.12 |
| A3G A18U A28C A57G A64G | 0.11 |
| A3G C4U A20U A45C | 0.39 |
| A3G A13U U74C | 1.16 |
| A3G A47G A77G | 0.84 |
| A3G C4U A64G U72C | 1.13 |
| A3G A13U A45C U74C A75G | 0.55 |
| A3G A15G A18G U43A | 0.19 |
| A3G A20U U49C U72C U76C | 0.1 |
| A3G A28G A47U A65G | 0.06 |
| A3G A21G A28G U41A A56G C62A | 0.38 |
| A3G A20C A28G U69A | 0.32 |
| A3G A21G U26A C38A U58C | 0.38 |
| A3G A21G A28G A45U U51A | 0.4 |

| Variant | self-cleavage |
| --- | --- |
| A3G A15G C32U U72C U74C U78A | 0.63 |
| A3G A15C U49C | 0.59 |
| A3G A20G C29U A75U | 0.34 |
| A3G C11G U25C U58C U69A | 0.07 |
| A3G A20G U41A U69C U78C | 0.07 |
| A3G A28C C59U G61A U69C | 0.09 |
| A3G A20G C23U U25C C39U U41C A56U | 0.06 |
| A3G A15U A18G U43A A57G C62U | 0.07 |
| A3G A18G G22U U43A U51C A64C U76A | 0.2 |
| A3G A28G U51C U76C | 0.54 |
| A3G A45G U51A | 0.57 |
| A3G A21G U31C A45U A64G U69C U72C | 0 |
| A3G A15G U26A A45C U60A U72C | 0.56 |
| A3G A15C A35U A47G U72C | 0.5 |
| A3G A56G A64U | 0.35 |
| A3G A18G U43C U48A A77U | 0.3 |
| A3G A21U U31A U48C U67C | 0.15 |
| A3G A35G U76A | 1.29 |
| A3G A35G U76C | 1.16 |
| A3G A28U A56U U58C | 0.22 |
| A3G A18U U41C A45U U80C | 0.47 |
| A3G A35G U58C | 1.15 |
| A3G A15G U49C U54C A57G U67C U78C | 0 |
| A3G A18U A21G U31C | 0.1 |

| Variant | self-cleavage |
| --- | --- |
| A3G A15U A64G U69A | 0.25 |
| A3G A18G A56G U78C U80A | 0.65 |
| A3G A20G U25G A45G G70A U78C | 0.09 |
| A3G C12U G36C U41C U58A A77G | 0.06 |
| A3G A18G A35G U49C | 0.55 |
| A3G A15G A28G G33U | 0.46 |
| A3G A28U A35G U60C U78C | 0.59 |
| A3G A15G U69A | 0.26 |
| A3G A15U A75G | 0.7 |
| A3G A28G U49C U80C | 0.37 |
| A3G A20G C38G U54G | 0.52 |
| A3G A28U A64U | 0.17 |
| A3G A18C A35G U67C U72C U74A | 0.12 |
| A3G A18G G33A U41C A45U G52C | 0.07 |
| A3G A35U U54C U69C | 0.22 |
| A3G A13U U31C A45G U49C U60C | 0.33 |
| A3G C12G A56U | 0.49 |
| A3G A20G A45G A47G A77G | 0.31 |
| A3G A18G A28G | 0.5 |
| A3G A45C A56G A75G U80C | 0.24 |
| A3G A18G A77G C81A | 1.12 |
| A3G A45G A57U U69C U72A U80C | 0.23 |
| A3G A21G U58C A65G U69A U80C | 0.09 |
| A3G A13U A57C U60A U72G | 0.17 |

| Variant | self-cleavage |
| --- | --- |
| A3G C4A U69C U78A | 0.98 |
| A3G A18U A45G U49C U69C U80A | 0.4 |
| A3G A21G C29U A35U C38U U58C | 0.12 |
| A3G A15U A18U C38A | 0.36 |
| A3G A28G A45G A57G | 0.4 |
| A3G A28U C37A G46A A47U U76A | 0.05 |
| A3G A56G A65G | 0.27 |
| A3G C11G U25C U31A | 0.07 |
| A3G C4U A56U U66A U72A | 0.52 |
| A3G A47G U54A A56C U60C U80A | 0.32 |
| A3G A28U A35G A64C U72A U76C | 0.24 |
| A3G A20G U26C C32G G52A U58C | 0.37 |
| A3G C11U U26A U49C U72C U80A | 0.06 |
| A3G A21G A35G U76C | 1.17 |
| A3G A18G U26C U43C A45U | 0 |
| A3G A56G U76A | 0.87 |
| A3G A20G A28U U80C | 0.85 |
| A3G A21G C38U U51C U58C U72C U80C | 0.09 |
| A3G A28G G33A A35G U78C | 0.08 |
| A3G A13U U43C | 0.44 |
| A3G A13U U43A | 1.18 |
| A3G A13U U49C U51C U60A U69C | 0.16 |
| A3G A15G A20G C29U | 0.43 |
| A3G A21G U31A A64G | 0.22 |

| Variant | self-cleavage |
| --- | --- |
| A3G A21G A77U | 0.81 |
| A3G A28G G36A U67A U78A | 0.2 |
| A3G A35G U74C U76C | 1.2 |
| A3G A20C A28U A64U | 0.12 |
| A3G A13U G46U U49A | 0.1 |
| A3G A15G U26A A45C A56G A57G U72C | 0.58 |
| A3G A15G U25C U49C | 0.44 |
| A3G A21G U25C U31C A64G | 0.13 |
| A3G A35G G36A A64U U67C | 0.22 |
| A3G A47G U69C | 0.6 |
| A3G A15G A20G U25A G55U | 0.69 |
| A3G A18G A56G | 0.52 |
| A3G A28U U41A G63A | 0.16 |
| A3G A20G U41G | 0.44 |
| A3G A18G A45G | 0.33 |
| A3G A15U A35G U66C | 0.97 |
| A3G A28G U48C U51A A57G U74C | 0.9 |
| A3G C12U C44A U60C | 0.56 |
| A3G A18G U69C | 1.08 |
| A3G A28C U69A | 0.11 |
| A3G A35U U41A | 0.29 |
| A3G C11U G33A A65G U80C | 0.09 |
| A3G A35G A47U U48C U69C | 0.28 |
| A3G A28U U41C U67G | 0.19 |

| Variant | self-cleavage |
| --- | --- |
| A3G A20U A47C A56G A64C U66G | 0.15 |
| A3G A28G U76C | 0.96 |
| A3G A18G C39A U76C | 0.49 |
| A3G A18G C40G A47U C59A U69C | 0.26 |
| A3G A15G A18G U31A U66C | 0.14 |
| A3G A15U A64U U72C U76A | 0.43 |
| A3G A56G U72C | 0.89 |
| A3G A35G U41C U72C | 1.24 |
| A3G A18G A28G A35U | 0.4 |
| A3G A15U A35G U41C A45G U78C | 1.16 |
| A3G A28G C34G G55U | 0.42 |
| A3G A13U U25A A47G | 0.13 |
| A3G A21G U51A U58C | 0.18 |
| A3G C11A U26A A65U | 0.05 |
| A3G A20G U25C U43C U67C | 0.23 |
| A3G A15G C38U A56G U66C | 0.34 |
| A3G A20U U25A C34U C37U | 0.09 |
| A3G A28C U54A | 0.63 |
| A3G A15G U49A A57U G73C A77G | 0.97 |
| A3G A28G G30A | 0.38 |
| A3G A15G A21G C29A A57G | 0.13 |
| A3G A35G A56U G63U | 1.16 |
| A3G A35G U54A A56G A64U | 1.11 |
